Reference: the BET-seq Pho4 binding data (Le et al. 2018)
Some of the results follow. Values were computed here from the reads of four pooled replicates and scatter widely.

Biological target: T1, Pho4 (S. cerevisiae) (UniProt P07270)
T1 sequence: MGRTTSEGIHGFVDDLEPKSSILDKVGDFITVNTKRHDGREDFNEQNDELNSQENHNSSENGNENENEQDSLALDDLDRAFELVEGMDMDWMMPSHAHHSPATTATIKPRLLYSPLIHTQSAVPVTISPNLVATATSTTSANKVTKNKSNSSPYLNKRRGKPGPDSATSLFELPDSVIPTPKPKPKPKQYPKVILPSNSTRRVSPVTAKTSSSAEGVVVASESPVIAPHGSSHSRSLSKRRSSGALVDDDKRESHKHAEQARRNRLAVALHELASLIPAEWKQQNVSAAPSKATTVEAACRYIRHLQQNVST
Assay: relative binding free energy (BET-seq); higher = weaker binding
Settings: reference: library average

Sequence	relative binding free energy
GTTGGCACGTGTTCTA	0.03 kcal/mol
TAGTTCACGTGTACAG	0.23 kcal/mol
TAGGTCACGTGTTCGT	0.07 kcal/mol
TGAATCACGTGTAGGA	0.33 kcal/mol
ATTGGCACGTGAGGTC	-0.01 kcal/mol
TGTAGCACGTGTTGTC	-0.02 kcal/mol
AGTGTCACGTGTTATG	0.17 kcal/mol
ATAAGCACGTGCGGGT	-0.19 kcal/mol
TGGATCACGTGTTGCA	0.08 kcal/mol
GTTTTCACGTGGCTTA	0.25 kcal/mol
TGTTGCACGTGAAGGG	0.16 kcal/mol
GGAGGCACGTGCGGGT	-0.09 kcal/mol
GGCGGCACGTGTGGAT	0.02 kcal/mol
TACGGCACGTGTGGGA	-0.11 kcal/mol
GGTGACACGTGTTCTT	0.22 kcal/mol
GTTGGCACGTGACGCT	0.12 kcal/mol
AGAGTCACGTGAATTG	0.26 kcal/mol
ATTGGCACGTGGTGAC	-0.25 kcal/mol
GATGTCACGTGTCTGT	0.11 kcal/mol
GGGTTCACGTGTGGCA	0.3 kcal/mol
GGCGTCACGTGAGAGA	0.49 kcal/mol
CTGAACACGTGAGGGT	0.19 kcal/mol
TTAGACACGTGGTTTG	-0.09 kcal/mol

Sequence	relative binding free energy
GAGGGCACGTGGGGTA	-0.27 kcal/mol
GTAGTCACGTGGGCAA	0.02 kcal/mol
TGGTGCACGTGGAAAA	0.06 kcal/mol
TGGATCACGTGTAAAG	0.28 kcal/mol
AATAGCACGTGAAGTT	0.17 kcal/mol
GGGGGCACGTGGAGGC	-0.03 kcal/mol
GTGGACACGTGTGAAG	0.18 kcal/mol
CTATGCACGTGTGTTA	-0.25 kcal/mol
GTGGTCACGTGCATGT	0.2 kcal/mol
GCGGGCACGTGAGGTC	0.24 kcal/mol
CTAAGCACGTGTTGTA	-0.15 kcal/mol
CATGTCACGTGGTAAG	-0.03 kcal/mol
GTGAGCACGTGGCTTG	-0.06 kcal/mol
CTGGTCACGTGTGATA	0.07 kcal/mol
TCGGGCACGTGAGGGA	0.13 kcal/mol
TTTTCCACGTGATAGT	0.05 kcal/mol
GGTTTCACGTGGTTGG	0.34 kcal/mol
AAATTCACGTGTGTAT	0.15 kcal/mol
TGGGACACGTGCGAGA	0.03 kcal/mol
GGTCGCACGTGATAGG	0.19 kcal/mol
GGTCGCACGTGTGCTT	0.03 kcal/mol
CCGGGCACGTGGTGTT	-0.29 kcal/mol
ACGGGCACGTGGCGTG	-0.08 kcal/mol

Sequence	relative binding free energy
TTTCACACGTGGGGTG	-0.2 kcal/mol
TAATTCACGTGTACTG	0.31 kcal/mol
ATGCGCACGTGCGTTG	-0.19 kcal/mol
TAGAACACGTGTTTTA	0.02 kcal/mol
CTCGTCACGTGGATTT	0.23 kcal/mol
TATTTCACGTGGACGT	0.18 kcal/mol
TTTGACACGTGTTATG	0.04 kcal/mol
CGTTTCACGTGGTCTG	0.2 kcal/mol
GGGGTCACGTGCATTT	0.13 kcal/mol
GTGCGCACGTGAATTT	0.24 kcal/mol
ATGAGCACGTGGGGAG	-0.27 kcal/mol
GCGGACACGTGGCGGC	0.18 kcal/mol
TATCACACGTGTAGTT	0.06 kcal/mol
GCGTTCACGTGAGGTA	0.46 kcal/mol
TGTGCCACGTGTTGAA	-0.07 kcal/mol
GTGTGCACGTGCAGGG	0.04 kcal/mol
TAATTCACGTGTGGCA	0.18 kcal/mol
CCTGGCACGTGTGTTT	-0.1 kcal/mol
TGGTCCACGTGGTACG	-0.06 kcal/mol
CGTTTCACGTGATTGG	0.35 kcal/mol
AGTTGCACGTGGGCGG	-0.07 kcal/mol
TGATACACGTGGGCTG	-0.08 kcal/mol
ATGGGCACGTGGCTGC	-0.18 kcal/mol

Sequence	relative binding free energy
GAGGTCACGTGAAGTT	0.4 kcal/mol
TGAAGCACGTGCGTAG	-0.07 kcal/mol
ACGATCACGTGATGTT	0.38 kcal/mol
GGCGTCACGTGGTTAA	0.03 kcal/mol
GTTTGCACGTGTAGGC	0.12 kcal/mol
GTGATCACGTGTAATG	0.24 kcal/mol
AATATCACGTGGTTGA	0.1 kcal/mol
GGCGTCACGTGAGAGT	0.39 kcal/mol
TACGGCACGTGCTTGT	-0.12 kcal/mol
CTTGTCACGTGAGGCT	0.21 kcal/mol
TCGGGCACGTGAGAGA	0.2 kcal/mol
TTTGTCACGTGGGCGG	-0.07 kcal/mol
TATGTCACGTGGAGAC	0.15 kcal/mol
TATATCACGTGATGAT	0.24 kcal/mol
GGATGCACGTGCGGAT	-0.13 kcal/mol
TGGACCACGTGGGTTA	-0.13 kcal/mol
TAGGGCACGTGTGCGA	-0.06 kcal/mol
CTCTACACGTGGGGGG	-0.12 kcal/mol
ATGTTCACGTGGGCCT	0.07 kcal/mol
CAGATCACGTGATGGG	0.28 kcal/mol
AGTAGCACGTGCTAGT	-0.13 kcal/mol
TGAGGCACGTGCCGTG	-0.26 kcal/mol
TGATGCACGTGCTTAT	0 kcal/mol

Sequence	relative binding free energy
TAAGACACGTGAGCGT	0.28 kcal/mol
GGTGCCACGTGTCGTT	-0.07 kcal/mol
TCTGGCACGTGAGTGA	0.04 kcal/mol
CGGGGCACGTGGTGCA	-0.24 kcal/mol
GTGAACACGTGGTTGG	0.03 kcal/mol
GGATACACGTGCGGGA	0.1 kcal/mol
TATAACACGTGTGTTT	-0.07 kcal/mol
TGGTTCACGTGTAACT	0.25 kcal/mol
ATTTTCACGTGTTCGC	0.2 kcal/mol
GGTTGCACGTGGCGGC	-0.13 kcal/mol
GTAGTCACGTGGGGGA	-0.01 kcal/mol
GCCGGCACGTGGTGTT	-0.07 kcal/mol
GGATACACGTGGTATT	0.01 kcal/mol
TCTTGCACGTGGGGTT	-0.23 kcal/mol
ATTTGCACGTGTAGGT	0.1 kcal/mol
GGCATCACGTGAGTCG	0.46 kcal/mol
AAGGACACGTGAGTGT	0.2 kcal/mol
TTTGGCACGTGGTAGG	-0.07 kcal/mol
TTGAGCACGTGGTCAG	-0.15 kcal/mol
AGAGTCACGTGGGGCT	0.04 kcal/mol
AGTTCCACGTGAGGGC	0.23 kcal/mol
TACGGCACGTGATATG	0.05 kcal/mol
TGTGTCACGTGCATTT	0.2 kcal/mol
